Results from article PMC4336329 (PLoS ONE, 2015).
Hit rate of the full screen: of about 310,000 compounds, about 14,000 (4.5%) showed an effect of 50% or more. Effects have a minus sign here. The list shows a part of the results.

Target: human ether-à-go-go-related gene (hERG) potassium channel (human, UniProt Q12809)
Test: primary screen, population patch clamp on CHO cells stably expressing hERG
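Further: peak tail current of the secondary pulse compared with the same well before compound.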

Sequence of human ether-à-go-go-related gene (hERG) potassium channel (Q12809 whole entry, looked up): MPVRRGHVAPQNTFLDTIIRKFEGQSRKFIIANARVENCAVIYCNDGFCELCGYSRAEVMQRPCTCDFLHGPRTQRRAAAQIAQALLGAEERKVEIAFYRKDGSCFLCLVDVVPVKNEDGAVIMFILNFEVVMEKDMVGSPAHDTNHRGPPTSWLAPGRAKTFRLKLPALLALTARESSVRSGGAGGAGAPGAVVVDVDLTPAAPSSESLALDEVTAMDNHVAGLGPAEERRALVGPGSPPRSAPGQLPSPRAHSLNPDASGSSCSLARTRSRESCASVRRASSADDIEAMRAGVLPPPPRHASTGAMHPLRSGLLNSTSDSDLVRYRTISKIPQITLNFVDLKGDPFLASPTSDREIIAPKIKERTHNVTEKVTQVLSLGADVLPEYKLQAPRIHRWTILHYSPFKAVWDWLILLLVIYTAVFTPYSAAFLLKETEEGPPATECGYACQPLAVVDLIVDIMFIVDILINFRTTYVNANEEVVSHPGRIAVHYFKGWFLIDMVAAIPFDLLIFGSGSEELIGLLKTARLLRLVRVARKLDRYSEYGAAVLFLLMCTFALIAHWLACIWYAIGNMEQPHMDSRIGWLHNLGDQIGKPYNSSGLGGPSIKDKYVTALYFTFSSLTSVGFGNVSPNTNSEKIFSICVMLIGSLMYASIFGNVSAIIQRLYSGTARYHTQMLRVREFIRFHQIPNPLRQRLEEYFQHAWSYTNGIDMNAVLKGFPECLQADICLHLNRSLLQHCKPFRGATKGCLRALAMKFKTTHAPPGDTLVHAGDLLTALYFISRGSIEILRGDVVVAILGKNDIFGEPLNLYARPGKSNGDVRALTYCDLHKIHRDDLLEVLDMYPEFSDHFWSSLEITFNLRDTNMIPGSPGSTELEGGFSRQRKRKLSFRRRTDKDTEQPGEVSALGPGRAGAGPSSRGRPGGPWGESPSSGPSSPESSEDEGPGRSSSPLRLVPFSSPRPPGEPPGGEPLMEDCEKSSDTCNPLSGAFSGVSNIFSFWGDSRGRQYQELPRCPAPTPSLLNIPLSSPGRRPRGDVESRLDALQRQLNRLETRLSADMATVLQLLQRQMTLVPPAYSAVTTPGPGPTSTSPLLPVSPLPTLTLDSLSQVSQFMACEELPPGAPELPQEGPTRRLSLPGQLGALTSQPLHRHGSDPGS

SMILES	hERG current change (%, negative = inhibition) at 10uM [%]
O=C(COC(=O)c1ccccc1Br)NCCC1=CCCCC1	-15.9
C#CCNC(=O)C1=C[C@@H](c2ccccc2)C[C@@H](OCc2ccc(CO)cc2)O1	-13.4
CC(=O)N1CCSc2ccc(S(=O)(=O)NCCc3ccc(Cl)cc3)cc21	-13.5
Cc1ccc(C(=O)OCC(=O)Nc2ccccc2C(F)(F)F)cc1S(=O)(=O)N1CCOCC1	-6.9
O=C(COC(=O)c1cc(Cl)ccc1O)NCCC1=CCCCC1	11.5
COC(=O)c1scc(C)c1NC(=O)Nc1ccccc1	3.91
COc1ccc(Nc2cc(C)c3cc([N+](=O)[O-])ccc3n2)cc1	14.8
Cc1nn(-c2ccccc2)c(C)c1[N+](=O)[O-]	-3.51
Cc1cc(C)c(NC(=O)Cn2c(=O)n(Cc3ccco3)c(=O)c3ccccc32)c(C)c1	9.28
COc1ccc(/C=C/C(=O)Nc2cc(C)nn2-c2nc3ccccc3n2Cc2cccc([N+](=O)[O-])c2)cc1	-2.38
COc1cc(C(=O)N2c3ccccc3CC2C)cc(OC)c1OC (stereo not drawn)	10.4
Cc1onc(-c2c(Cl)cccc2Cl)c1/C(N)=N/OC(=O)C(C)(C)C	-7.94
COCCCNc1nc2c(-c3ccc(Cl)cc3)nnn2c2ccccc12	-16.4
N#CCc1c(C#N)c(N)nc(N2CCN(C=O)CC2)c1C#N	-10.8
Cc1csc2c(N3CCN(C(=O)Nc4ccc(Cl)c(Cl)c4)CC3)ncnc12	-8.47
O=C(Nc1cccc2nsnc12)c1cccnc1Cl	-32.7
CCCCP(=O)(CCCC)Cc1ccccc1O	13.9
Nc1ccc(-c2cc3ccccc3oc2=O)cc1	9.68
COc1cccc(C(=O)NCCC2=CCCCC2)c1OC	-7.52

SMILES	hERG current change (%, negative = inhibition) at 10uM [%]
CC(C)(C)c1ccc(OCCCN2CCCC2)cc1	-56.4
CN(C)CCOC(=O)Cc1ccc(Cl)cc1.Cl	-5.75
O=C(NN1C(=O)C2C3C=CC(C4CC34)C2C1=O)c1cccc(Cl)c1 (stereo not drawn)	-3.23
CCOC(=O)Cc1csc(NC(=O)c2c(C)noc2C)n1	9.3
CCC(=O)N1CCc2cc(S(=O)(=O)Nc3ccccc3C)ccc21	18
CCOC(=O)C1=C(COC(=O)/C=C/c2ccc(O)c(OC)c2)NC(=O)NC1C (stereo not drawn)	-2.95
COc1ccc(/C=N/NC(=O)c2[nH]c(C)c(C(=O)N/N=C/c3ccc(OC)cc3)c2C)cc1	2.38
CCCc1cc(C(=O)Nc2ccc(C#N)cc2)no1	3.45
COc1ccc(-n2nc(C(=O)NCC(=O)N3CCC4(CC3)OCCO4)c3ccccc3c2=O)cc1OC	19.7
Cc1cccc(C(=O)N2c3ccccc3C(=O)OC2c2ccc3c(c2)OCO3)c1 (stereo not drawn)	10.6
OC(COc1ccc(Cl)cc1)CN1CCN(c2ccccn2)CC1 (stereo not drawn)	-68
Cc1ccc(N(CCC(=O)N2CCOCC2)S(=O)(=O)c2ccccc2)cc1	-8.57
O=C(CCN1CCCCCC1)Nc1ccc2c(c1)OCCO2.O=C(O)C(=O)O	-1.98
CCOc1cc(/C=C2/SC(=S)N(Cc3ccccc3)C2=O)ccc1O	14.4
Clc1ccc(SCCCCn2ccnc2)cc1	-53
Br.Cc1ccccc1N=C/C=C1/C=C(c2ccccc2)OC(C)(C)O1	-0.956
Cc1c(C(=O)NN2CCN(C)CC2)cccc1[N+](=O)[O-]	3.7
COc1ccc2c(c1)CCC1C2=NN(/C(C)=C/C(C)=O)C1c1cccc(F)c1 (stereo not drawn)	9.68
CC(C)(C)NC(=O)NC(=O)CN1CCN(c2ccccc2O)CC1	16.8

SMILES	hERG current change (%, negative = inhibition) at 10uM [%]
O=C(NCCNC1CCC(c2ccccc2)CC1)c1ccc(F)cc1 (stereo not drawn)	-58.3
CN(C(=O)c1ccc(NC(=O)Cc2ccc(NC(=O)C3CCCN(C(=O)C4CCCC4)C3)cc2)cc1)C1CC1 (stereo not drawn)	14
O=C(COC(=O)CSc1ccc2ccccc2c1)Nc1ccccc1OC(F)F	-4.2
Cc1cccc(NC(=O)CCc2ccccc2)c1	-1.13
C#CCn1cnc2c(oc3ccccc32)c1=O	-0.773
COc1ccc(Cl)cc1NC(=O)CN(C)C(=O)c1cc(-c2ccncc2)nc2ccccc12	-8.15
CCc1c(C)c2nncn2[nH]c1=O	0.209
Cc1ccc(S(=O)(=O)N2CCCC(C(=O)NCCC(C)C)C2)cc1 (stereo not drawn)	20
Cc1coc(C)c1C(=O)CC1(O)C(=O)N(C)c2ccc(Cl)cc21 (stereo not drawn)	10.4
COC(=O)c1cc(S(=O)(=O)N2CCN(c3ccccc3F)CC2)c[nH]1	4.27
FC(F)(F)Oc1ccc(-c2cn3cccnc3n2)cc1	-3.79
CC(C)(C)NC(=O)c1ccc2c(c1)N(CC(=O)N1CCCC1)C(=O)C(C)(C)O2	11.2
CCOC(=O)N1CCN(C(=O)c2ccc(N(Cc3ccc(Cl)cc3)S(C)(=O)=O)cc2)CC1	-15.3
CN(C)/C=C(\C#N)C(=O)Nc1ccccc1	14
Cc1cn([C@@H](CCCCNC(=O)OC(C)(C)C)C(=O)NCCCCCCCCCCC(=O)N2CCN(C(=O)OC(C)(C)C)CC2)nn1	-4.39
COc1ccc(CCNS(=O)(=O)c2cccc(C(=O)O)c2)cc1OC	16.2
CCCc1cc(=O)[nH]c(SCC(=O)c2c(C)[nH]c3ccccc23)n1	-6.2
CCS(=O)(=O)N1N=C(c2cccs2)CC1c1cc2cc(C)ccc2nc1Cl (stereo not drawn)	-21
COc1ccc(OC)c(NC(=O)COc2ccc3c(c2)CCC3)c1	14.3
